Reference: PubChem BioAssay AID488969 (Vanderbilt High Throughput Screening Facility, 2010)
In all, about 110,000 compounds were measured (“z-score”: median about -0.1, highest 2% from about 2 on). The list shows a part of the results. Active and inactive are the calls of the source.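 How the source made its calls: active means z-score in the third read window above 3 or below -3; inactive means the rest.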

target: Metabotropic glutamate receptor 8 (Rattus norvegicus) (UniProt P70579); experiment: rat mGluR8 modulators via GIRK flux, primary screen, cell-based, thallium flux, HTS (AID 488969); settings: HEK293 rat mGluR8, GIRK (G protein-gated inwardly rectifying potassium channel) thallium flux, FluoZin2; at 10 µM; stronger effect = higher value; submaximal glutamate (EC20) added with thallium
Sequence of UniProt P70579 (P70579 whole entry, looked up): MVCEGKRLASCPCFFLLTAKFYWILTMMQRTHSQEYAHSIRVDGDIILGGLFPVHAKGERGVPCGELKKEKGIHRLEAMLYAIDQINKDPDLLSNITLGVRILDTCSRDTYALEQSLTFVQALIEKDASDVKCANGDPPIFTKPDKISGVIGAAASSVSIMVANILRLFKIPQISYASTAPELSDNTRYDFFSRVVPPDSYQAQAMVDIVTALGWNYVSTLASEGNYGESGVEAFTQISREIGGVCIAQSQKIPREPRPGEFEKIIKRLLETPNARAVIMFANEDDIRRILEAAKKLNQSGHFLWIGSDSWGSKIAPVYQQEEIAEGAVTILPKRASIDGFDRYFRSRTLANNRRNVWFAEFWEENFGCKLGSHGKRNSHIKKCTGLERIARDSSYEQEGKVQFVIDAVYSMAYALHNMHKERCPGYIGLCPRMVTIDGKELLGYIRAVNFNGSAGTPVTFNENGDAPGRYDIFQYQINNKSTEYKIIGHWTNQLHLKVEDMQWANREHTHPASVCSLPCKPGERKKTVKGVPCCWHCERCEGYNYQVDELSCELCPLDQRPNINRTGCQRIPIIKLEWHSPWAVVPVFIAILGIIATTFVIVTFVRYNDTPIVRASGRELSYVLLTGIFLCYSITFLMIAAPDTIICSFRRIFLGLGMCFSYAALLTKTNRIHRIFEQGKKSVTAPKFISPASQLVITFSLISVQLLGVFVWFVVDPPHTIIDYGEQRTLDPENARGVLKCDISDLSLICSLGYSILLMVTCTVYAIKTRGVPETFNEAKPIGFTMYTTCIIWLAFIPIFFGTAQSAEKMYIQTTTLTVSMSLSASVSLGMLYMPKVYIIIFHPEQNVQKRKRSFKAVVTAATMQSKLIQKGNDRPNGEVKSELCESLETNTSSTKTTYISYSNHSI

Row | SMILES | z-score
1 | Cc1ccc(-c2nnc3c4ccccc4c(C)nn23)cc1S(=O)(=O)N1CCN(C)CC1 | -0.999
2 | O=C(Nc1nncs1)c1ccccc1Br | -0.0935
3 | CC1=C(C(=O)N(C)Cc2ccccc2)C2(CCC(C)CC2)OC1=O (stereo unspecified) | -0.138
4 | CCC(C)NS(=O)(=O)c1ccc(OCC(=O)N2CCCCC2)cc1 (stereo unspecified) | -0.0559
5 | CCN(CC)S(=O)(=O)c1ccc(NC(=O)COc2c(OC)cccc2OC)cc1 | -0.124
6 | Cc1noc2ncnc(Sc3ccccc3Cl)c12 | -0.264
7 | O=C(NCc1ccco1)C(c1ccc(F)cc1)N(Cc1cccnc1)C(=O)Cn1nnc2ccccc21 (stereo unspecified) | -0.197
8 | Cc1ccc(S(=O)(=O)Cc2ccc(C(=O)N3CCN(c4ccccn4)CC3)o2)cc1 | -0.132
9 | CCNC(=S)N1CCC(NC(=O)C2CCCCC2)CC1 | 0.033
10 | CC1CCN(C(=O)CSc2nnc(CN3CCOCC3)n2-c2ccccc2)CC1 | -0.0153
11 | COc1ccc(N(CC(=O)NCc2ccco2)S(C)(=O)=O)cc1Cl | -0.0738
12 | O=C(NCCC1=CCCCC1)c1ccc(Cl)c([N+](=O)[O-])c1 | -0.0902
13 | Cc1cccc(NC(=O)CC2C(=O)NCCN2C(=S)Nc2ccccc2)c1 (stereo unspecified) | -0.0177
14 | CN(c1ccccc1)S(=O)(=O)c1cccc(C(=O)OCC(=O)NCc2ccc3c(c2)OCO3)c1 | -0.536
15 | CCCc1nnc(NC(=O)CCC(=O)N2CCCCC2CC)s1 (stereo unspecified) | 0.821
16 | Cc1ccc(-c2noc(C3CCCN(C(=O)C4CCCCC4)C3)n2)o1 (stereo unspecified) | -0.391
17 | CC(C)(C)c1ccc(NC(=O)COc2ccc(-n3ccnc3)cc2)cc1 | -0.107
18 | CCc1ccccc1NC(=O)CCCSc1nc2ccccc2s1 | -0.128
19 | CC(Oc1ccc(Cl)cc1Cl)C(=O)NC1CCSC1=O (stereo unspecified) | -0.619
20 | COC(=O)c1ccccc1NC(=O)C1CC(=O)N(c2ccc(C)c(C)c2)C1 (stereo unspecified) | -0.903
21 | COc1ccc(-c2nc(-c3cccc(C)c3)nc(Cl)c2C#N)cc1 | -0.35
22 | CCn1c(SCc2nc3scc(-c4ccccc4)c3c(=O)[nH]2)nnc1-c1ccc(Cl)cc1 | -0.251
23 | Cc1ccccc1Nc1nc(N)nc(CSc2nc3ccccc3c(=O)n2C)n1 | 0.919

Row | SMILES | z-score
24 | CC(=O)Nc1cc(S(=O)(=O)Nc2ccccc2C)c(C)cc1C | -0.156
25 | CNCCOc1ccccc1C(C)(C)C | 0.802
26 | CCOC(=O)/C=C/S(=O)(=O)c1ccc(NC(C)=O)cc1 | -0.538
27 | CC1=C(C(=O)Nc2ccccc2)C(c2ccc3c(c2)OCO3)C2=C(CCCC2=O)N1 (stereo unspecified) | -0.226
28 | NC(=S)c1ccc(C(N)=S)o1 | 0.498
29 | Cc1ccccc1NC(=O)Nc1nnc(Cc2ccc([N+](=O)[O-])cc2)s1 | -0.208
30 | CCCCc1ccc(-c2ccc(Br)cc2)nc1 | -0.143
31 | Cn1c(N)c(C(=O)COC(=O)CSc2ccccc2)c(=O)n(C)c1=O | 0.116
32 | Cn1c(N)c(C(=O)CSc2nc(N)cc(=O)[nH]2)c(=O)n(C)c1=O | 0.13
33 | CCn1c(Cc2ccc(OC)cc2)nnc1SCC(=O)Nc1nc2ccccc2s1 | -0.238
34 | CCC(CO)n1c(SCc2cc(=O)oc3cc(C)ccc23)nc2ccccc2c1=O (stereo unspecified) | 0.503
35 | CCc1oc2ccccc2c1C(=O)CCN1CCCCC1 | 0.481
36 | Cc1cc(C)n(CCCNCC(O)c2ccccc2)n1 (stereo unspecified) | 0.196
37 | Cc1ncc(CO)c(/C=N/NC(=O)c2ccc(O)cc2)c1O | -0.221
38 | O=C(c1cnccn1)N1CCN(c2ccccc2)CC1 | -0.108
39 | O=C(c1ccco1)N1CCN(C(c2cccs2)c2sc3ncnn3c2O)CC1 (stereo unspecified) | 0.269
40 | O=C(N/N=C/c1ccc([N+](=O)[O-])s1)c1ccccc1Br | -0.301
41 | Cc1ccccc1CN(C)CC(=O)Nc1ccccc1-c1ccccc1 | 0.244
42 | Cc1ccc(S(=O)(=O)N2CCN(C(=O)Cc3ccc4c(c3)OCCO4)CC2)cc1C | -0.229
43 | CC1Cc2nc(SCC(=O)Nc3ccc4c(c3)OCCO4)n(C)c(=O)c2S1 (stereo unspecified) | -2.29
44 | Cc1ccc(NC2=CC(=O)CC(C)(C)C2)c(N)c1 | -0.165
45 | O=C(OCC#CCSc1nc2ccccc2s1)c1ccco1 | -1.16
46 | NC(=O)C1CCN(c2ccc(C(F)(F)F)cc2[N+](=O)[O-])CC1 | 0.0305

Row | SMILES | z-score
47 | Cc1ccc(CNC(=O)CCc2ccc(S(=O)(=O)NC3CCCCC3)cc2)cc1 | -0.502
48 | N#Cc1c(NC(=O)c2ccc(N3CCOCC3)c([N+](=O)[O-])c2)sc2c1CCCC2 | -0.412
49 | O=C(COC(=O)Cc1ccsc1)NCC1CCCCC1 | 0.126
50 | O=C1C2C3C=CC(C3)C2C(=O)N1CCCO (stereo unspecified) | 0.101
51 | CCOc1ccc(C(=O)NCCn2cc(SCC(=O)Nc3cc(C)on3)c3ccccc32)cc1 | -0.34
52 | Nn1c(SC/C=C/c2ccccc2)nnc1-c1ccccn1 | active: -4.34
53 | Cc1c(NC(=O)C(=O)/C=C(\O)c2ccc(Cl)cc2)c(=O)n(-c2ccccc2)n1C | 2.16
54 | Cc1ccc2c(c1)cc(CN(Cc1ccc3c(c1)OCO3)S(=O)(=O)c1ccccc1)c1nnnn12 | -0.139
55 | Cc1ccc(NC(=S)N(C)Cc2cn(C)c3ccccc23)cc1 | 0.334
56 | CN(C)CCNC(=O)c1cc2ccccc2oc1=O | 0.761
57 | Cc1ccc(-c2nnc(/C=C/c3ccccc3)o2)cc1 | -0.239
58 | Cc1ccc2nc(SCc3ccc([N+](=O)[O-])cc3)nc(C)c2c1 | -0.0907
59 | Oc1ccc(Br)cc1C=Nc1ccc2[nH]ncc2c1 | -0.0698
60 | CSc1ncccc1C(=O)Nc1ccc(S(=O)(=O)Nc2nccs2)cc1 | -0.16
61 | CCSc1nc(C)c(C(C)=O)cc1C#N | -0.273
62 | O=C(CCc1ccccc1)Nc1ccc(NC(=O)c2ccco2)cc1 | 1.63
63 | COc1ccccc1OC(=O)c1cc(Cl)nc2ccccc12 | 0.605
64 | CC(=O)N(CCC1(C(C)C)CCOC(C)(C)C1)Cc1ccco1 (stereo unspecified) | 0.179
65 | COc1ccc(-n2nnnc2SCC(=O)N2CCCC2)cc1OC | 0.896
66 | CC(C)Sc1nc(C(F)(F)F)cc(=O)n1-c1ccccc1 | 0.426
67 | CCc1ccc(C(=O)Nc2cc3c(cc2Cl)OCCCO3)cc1 | -0.587
68 | C=CCNC(=O)c1onc(CSc2ccc(Cl)cc2)c1C(=O)O | -0.4
69 | O=C(NC(c1ccccc1)c1c(O)ccc2ccccc12)c1ccccc1Cl (stereo unspecified) | -0.398

Row | SMILES | z-score
70 | CCCC(=O)Oc1ccc(N(C(=O)CCC)S(=O)(=O)c2cccc([N+](=O)[O-])c2)cc1 | -0.312
71 | O=C(/C=C/c1ccc(Cl)cc1)N1CCN(c2ccccn2)CC1 | -0.287
72 | CCn1c(=O)cc(SCC(=O)NCCCN2CCN(c3ccccc3F)CC2)c2ccccc21 | 0.0677
73 | Cc1cc2n(n1)C(c1ccc3c(c1)OCO3)Nc1c(C)cccc1-2 (stereo unspecified) | -1.05
74 | COc1cccc(Nc2nc(CN3CCOCC3)nc3sc4c(c23)CCCC4)c1 | -0.225
75 | CC1=C(C(=O)OCC(C)C)C(c2cccc(F)c2)N2C(=O)C(C)SC2=N1 (stereo unspecified) | -1.22
76 | CC1CCN(C(=S)c2cn(Cc3cccc(F)c3)c3ccccc23)CC1 | -0.227
77 | CN(C)c1ccc(CNC2C3CC4CC(C3)CC2C4)cc1 (stereo unspecified) | 1.29
78 | Cc1nc(N2CCc3ccccc32)[nH]c(=O)c1CCC(C)C | 1.25
79 | COc1ccc(/C=N\NC(=S)SCN2C(=O)C3CCC(C)(C2=O)C3(C)C)cc1 (stereo unspecified) | active: 9.12
80 | CCOC(=O)c1cccc(NC(=O)CSc2nnc(-c3cccnc3)n2CC)c1 | -0.583
81 | CCOC(=O)c1ccc(NC(=O)c2cc(S(=O)(=O)N3CCOCC3)ccc2O)cc1 | -2.37
82 | Cc1ccc(Cn2cccc2C2=NC(C)CO2)cc1 (stereo unspecified) | -0.0156
83 | O=C(CCCSc1nc(-c2ccco2)cc(C(F)(F)F)n1)NCc1cccs1 | -0.948
84 | CCOc1ccc(/C(O)=C2/C(=O)C(=O)N(CCOCCO)C2c2ccc(F)cc2)cc1 (stereo unspecified) | 0.369
85 | Cc1ccc(-c2csc(NNC(=O)c3ccccc3)n2)cc1 | -0.16
86 | S=C(NCCSCc1ccc(Cl)cc1Cl)Nc1ccccc1 | -0.181
87 | COC(=O)c1ccc(NC(=O)C(=O)N2CCCC2)cc1 | -0.352
88 | COc1ccccc1NC(=O)CSC(N)=O | 0.0872
89 | CC1CCCC(C)N1C(=O)CN1C(=O)C(C)(C)Oc2ccc(C(=O)NC3CCCCC3)cc21 (stereo unspecified) | -0.0308
90 | CCOc1ncccc1C(=O)OCC(=O)Nc1ccc(C)c(S(=O)(=O)N2CCOCC2)c1 | -0.521
91 | CSc1cnn(-c2ccccc2)c(=O)c1SC | -0.142
92 | COc1ccc(C(C(=O)NC2CCCCC2)N(C(=O)Cc2c[nH]c3ccccc23)c2ccccc2)cc1OC (stereo unspecified) | -0.0712

Row | SMILES | z-score
93 | O=S(=O)(c1ccccc1)c1cnc(-c2cccnc2)nc1-c1ccc(Cl)cc1Cl | 0.15
94 | COc1ccc(C2N3CC4(C)CN2CC(C)(C3)C4O)cc1 (stereo unspecified) | 0.858
95 | COc1cc(OC)cc(C(C(=O)NC2CCCCC2)N(C(=O)c2ccno2)c2ccccc2)c1 (stereo unspecified) | 0.314
96 | Cc1noc(C)c1C(=O)Nc1ccc(F)c(F)c1 | -0.0662
97 | CN(C)c1ccc(C(=O)OCC(=O)NCC2CCCO2)cc1 (stereo unspecified) | 0.133
98 | O=C(Nc1nc(-c2ccc(S(=O)(=O)N3CCCCCC3)cc2)cs1)c1cccs1 | 0.452
99 | Cc1cc(-c2ccccc2)nc(N/N=C/c2ccco2)n1 | 0.0633
100 | COc1ccc(OC)c(Nc2nc(-c3sc(N)nc3C)cs2)c1 | -0.265
101 | CCOC(=O)c1sc(-c2ccc(F)cc2)cc1N | 0.0216
102 | CCOc1ccc(N(CC(=O)NCc2cccs2)S(=O)(=O)c2c(C)noc2C)cc1 | -0.465
103 | O=C(CN1C(=O)COc2ccc(Cl)cc21)Nc1ccc2c(c1)OCCO2 | -0.162
104 | Cc1cc(C)nc(SCc2cccc(C(=O)O)c2)n1 | 0.0375
105 | COc1ccccc1-c1cc(C(=O)N/N=C/c2ccc(C)s2)c2ccccc2n1 | -0.0583
106 | Cc1cc(C)cc(NC(=O)CN(C)S(=O)(=O)c2cnc[nH]2)c1 | -0.129
107 | O=C(NC(Cc1ccccc1)c1ccc2c(c1)OCCCO2)c1ccccc1 (stereo unspecified) | -0.929
108 | C=CCn1c(=N)c(C#N)cc2c(=O)n3ccccc3nc21 | -0.167
109 | COC(=O)CN(c1ccc(C(C)C)cc1)S(=O)(=O)c1c(C)[nH]c(=O)[nH]c1=O | -0.0571
110 | CC12CC3CC(C)(C1)CC(C(=O)NC1=NCCS1)(C3)C2 | -0.108
111 | Cc1ccccc1N1C(=O)C(Cl)=C(N2CCN(c3ccccc3)CC2)C1=O | -0.739
